From article PMC4336329 (PLoS ONE, 2015)
Out of some 310,000 compounds screened, about 14,000 (4.5%) showed an effect of 50% or more. Effects have a minus sign here. The list shows a part of the results.

Each compound was assayed against human ether-à-go-go-related gene (hERG) potassium channel (human, UniProt Q12809) (assay: primary screen, population patch clamp on CHO cells stably expressing hERG).
Method: Briefly, Chinese hamster ovary (CHO) cells stably expressing the hERG channel were dislodged from tissue culture flasks and dispensed into PPC plates. […] During the recording, background leak currents were estimated by a 100 ms step to -80 mV from an initial holding potential of -70 mV and subtracted from the subsequent current measurement. The campaign was conducted in two phases using slight differences in recording protocol. In the first phase, the initial voltage pulse used a 100 ms step to -30 mV from a holding potential of -70 mV, a 2 s conditioning step to +25 mV, and a 2 s test step to -30 mV. During the second phase of the screen, the potential during the conditioning step was raised to +45 mV. In both phases of the campaign, a secondary voltage pulse was applied using the same parameters as the second phase initial pulse. The initial and secondary pulses were applied in the absence of compound, and upon application of 1 μM and 10 μM test concentrations. […]
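Note: peak tail current of the secondary pulse compared with the same well before compound.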

human ether-à-go-go-related gene (hERG) potassium channel, sequence (Q12809 whole entry, looked up): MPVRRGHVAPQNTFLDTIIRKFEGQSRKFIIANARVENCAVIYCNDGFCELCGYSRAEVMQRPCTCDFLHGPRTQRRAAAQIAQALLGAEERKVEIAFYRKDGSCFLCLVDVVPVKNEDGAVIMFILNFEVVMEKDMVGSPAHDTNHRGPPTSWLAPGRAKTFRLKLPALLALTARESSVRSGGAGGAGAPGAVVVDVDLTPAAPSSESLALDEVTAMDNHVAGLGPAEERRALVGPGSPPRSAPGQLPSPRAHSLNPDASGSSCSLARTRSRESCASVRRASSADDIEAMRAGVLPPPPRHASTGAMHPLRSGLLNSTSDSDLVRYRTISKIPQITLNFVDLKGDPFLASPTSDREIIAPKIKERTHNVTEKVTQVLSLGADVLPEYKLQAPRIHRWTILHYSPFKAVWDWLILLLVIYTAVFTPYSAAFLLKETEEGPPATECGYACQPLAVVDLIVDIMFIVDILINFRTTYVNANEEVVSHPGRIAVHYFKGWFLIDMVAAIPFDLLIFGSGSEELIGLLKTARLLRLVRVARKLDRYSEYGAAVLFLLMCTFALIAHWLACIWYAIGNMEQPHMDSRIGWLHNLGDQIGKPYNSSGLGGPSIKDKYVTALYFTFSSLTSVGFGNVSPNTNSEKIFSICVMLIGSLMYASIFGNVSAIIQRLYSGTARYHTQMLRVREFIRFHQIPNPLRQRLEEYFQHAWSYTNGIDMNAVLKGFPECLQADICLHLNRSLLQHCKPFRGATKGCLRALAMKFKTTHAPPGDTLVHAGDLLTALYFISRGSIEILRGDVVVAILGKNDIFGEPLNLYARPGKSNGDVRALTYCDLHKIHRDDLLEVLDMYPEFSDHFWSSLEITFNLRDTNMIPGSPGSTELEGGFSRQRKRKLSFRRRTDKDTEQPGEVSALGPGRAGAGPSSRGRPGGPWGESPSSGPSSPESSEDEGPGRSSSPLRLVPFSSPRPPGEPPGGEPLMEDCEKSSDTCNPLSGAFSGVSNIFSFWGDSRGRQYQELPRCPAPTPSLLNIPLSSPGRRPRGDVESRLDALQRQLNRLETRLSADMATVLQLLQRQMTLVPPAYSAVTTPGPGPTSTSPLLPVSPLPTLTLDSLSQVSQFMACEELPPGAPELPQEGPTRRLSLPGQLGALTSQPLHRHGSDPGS

| SMILES | hERG current change (%, negative = inhibition) at 10uM |
| --- | --- |
| Clc1ccc(-c2nnn(Cc3nc4ccccc4s3)n2)cc1 | 3.73% |
| COC(=O)c1cccc2c1-c1ccccc1/C2=N/O | -9.53% |
| COc1ccccc1N1CCN(C(=O)c2cc(=O)c3ccc(C)cc3o2)CC1 | -20.7% |
| O=C(CC(=O)c1ccccc1)Nc1cc(C(F)(F)F)ccc1Cl | -13.1% |
| Cc1nnc(NC(=O)Cn2nc(C)c3ccccc3c2=O)s1 | 16.2% |
| COc1ccccc1NC(=O)Nc1ccc(C(N)=O)cc1 | 5.2% |
| O=C(Nc1ccc(CN2CCOCC2)cc1)c1cc2ccccc2o1 | -50.2% |
| CC(C)Cc1ccc(C(C)C(N)=Nc2ccc(O)cc2)cc1.Cl (stereo not drawn) | -80.2% |
| O=C1NC[C@H](c2ccccc2)N(CCc2cc(C(F)(F)F)cc(C(F)(F)F)c2)C1=O | -23.4% |
| COc1ccc2cc(C(=O)NCc3ccccc3)c(=Nc3ccc(C(=O)O)cc3)oc2c1 | 14.3% |
| CCCn1c(=NC(=O)c2ccco2)c(C(=O)OCC)cc2c(=O)n3ccccc3nc21 | -66.7% |
| O=C1CC(N2CCC(c3nc4ccccc4o3)CC2)C(=O)N1c1ccc(Cl)c(C(F)(F)F)c1 (stereo not drawn) | 6.87% |
| O=C(Nc1cccc(C(F)(F)F)c1)c1cnccn1 | -2.3% |
| O=C(CSc1nncn1-c1cccnc1)Nc1cccc([N+](=O)[O-])c1 | 4.83% |
| Cc1nc2ccc(N3CCN(C)CC3)cc2nc1C | 15.1% |
| CC(=O)Nc1ccc(S(=O)(=O)N(C)CC(=O)OC(C)C(=O)N(C)Cc2ccccc2)cc1 (stereo not drawn) | 14.6% |
| O=C(NCCN1C(=O)S/C(=C\c2ccc(OC(F)F)cc2)C1=O)C1=COCCO1 | -32.5% |
| COc1c(Br)cc2c(C)c(C(=O)O)oc2c1Br | 27.7% |
| CCCCC(=O)NC(c1ccc(N(C)C)cc1)c1ccc2cccnc2c1O (stereo not drawn) | 2.27% |
| O=C(NCCC1=CCCCC1)C1CCN(S(=O)(=O)c2ccccc2)CC1 | -2.85% |
| Cn1c2c(c(=O)n(C)c1=O)C(c1cccc([N+](=O)[O-])c1)Nc1ccccc1O2 (stereo not drawn) | -12.3% |
| CCCCS(=O)(=O)N1CCCC(C(=O)Nc2ccc(Cl)cn2)C1 (stereo not drawn) | -16.4% |
| COc1ccc(NS(=O)(=O)c2ccc(-c3coc(C)n3)cc2)cc1 | 22.8% |

| SMILES | hERG current change (%, negative = inhibition) at 10uM |
| --- | --- |
| CC1=C(C(=O)Nc2ccccc2)C(c2cccs2)n2nnnc2N1 (stereo not drawn) | 4.46% |
| O=S(=O)(NCc1ccccc1)c1ccc(NC(=S)NCc2ccco2)cc1 | -5.02% |
| Cc1cccc(C(=O)Nc2ccc(NC(=O)CN3CCOCC3)cc2)c1 | 4.46% |
| Cc1nn(-c2ccccc2)c(C)c1/C=N/NC(=O)c1cc(-c2ccccc2)n[nH]1 | -5.75% |
| CCCn1c(SCC(=O)Nc2nnc(CC)s2)nnc1-c1ccncc1 | 13.7% |
| COc1ccc(OC)c(C(C)NC(C)=O)c1 (stereo not drawn) | 13.3% |
| Nc1ccccc1C(=O)NCc1ccco1 | 9.62% |
| COc1cccc(NC(=O)Nc2nc(SC)ns2)c1 | 17.3% |
| COc1cccc(/C(O)=C2\C(=O)C(=O)N(c3ccccn3)C2c2cccc(OC)c2OC)c1 (stereo not drawn) | 1.08% |
| CCn1c2ccccc2c2cc(NC(=O)c3cccc([N+](=O)[O-])c3)ccc21 | 8.93% |
| COCCN1Cc2cccc(C(=O)Nc3c(C)cc(C)cc3C)c2C1=O | -13.3% |
| Cc1ccc(O)c(NC(=O)CSc2ccc(Cl)cc2)c1 | 19.3% |
| COc1ccc(S(=O)(=O)N2CCCCC2)cc1NC(=O)C1CCCC1 | -8.28% |
| CCC1COCCS(=O)(=O)N1Cc1cccc(Cl)c1 (stereo not drawn) | -19.3% |
| CCc1c(C)nc2ncnn2c1N1CCCC(C(=O)NCCc2ccccc2)C1 (stereo not drawn) | -15.2% |
| CCNc1nc(NCC)n2c(SCC(=O)Nc3ccccc3)nnc2n1 | 1.89% |
| COCCNc1nc2nonc2nc1N1CCC(N(C)C)C1 (stereo not drawn) | 1.92% |
| COc1ccccc1CNC(=O)c1cccc(S(=O)(=O)N2CCN(c3ccc(F)cc3)CC2)c1 | -4.01% |
| C/C(=N\NC(=O)c1ccc(NS(=O)(=O)c2cccs2)cc1)c1ccc(O)cc1O | -0.956% |
| Cc1nn(Cc2ccc(Cl)c(Cl)c2)c(C)c1NC(=O)c1sc2ccccc2c1Cl | 3.36% |
| COc1ccc(-c2nc(NC(=O)CSCCO)sc2C)cc1 | -4.57% |
| CC1CC(C)(C)N(C(=O)NC2CCCCC2)c2ccccc21 (stereo not drawn) | 15% |
| COC(=O)c1[nH]c2ccc(C)cc2c1NC(=O)Oc1ccccc1 | 14.5% |

| SMILES | hERG current change (%, negative = inhibition) at 10uM |
| --- | --- |
| CCCc1nnc(SCC(=O)Nc2ccccc2F)o1 | 4.74% |
| O=C(COc1ccc(Cl)cc1)Nc1ccc2[nH]ncc2c1 | 14.4% |
| Cc1nc2ccccc2n1CC(=O)OCC(=O)NCCc1ccccc1 | 22.1% |
| CC(=O)N1CCN=C1SCc1ccc(C(F)(F)F)cc1 | -10.5% |
| CCOc1cccc(SCc2noc(C(=O)NC(C)C)c2C(=O)O)c1 | -0.245% |
| CCOC(=O)c1c(NC(=O)C2CCCCC2)sc2c1CCN(C(C)C)C2.Cl | -81.6% |
| Cc1ccc(OCCSc2nc3ccccc3n2CC(=O)O)cc1 | 22.4% |
| CCOC(=O)N1CCN(C(=O)c2ccc(C)c(S(=O)(=O)N3CCCCC3)c2)CC1 | -46% |
| CCn1cnc2sc(C(=O)O)c(C)c2c1=O | 10.9% |
| COc1cc(/C=N/n2c(C)nc3ccccc3c2=O)ccc1O | 4.55% |
| O=C(CSc1nncs1)NNC(=O)c1ccco1 | 13.2% |
| CCOC(=O)/C(C#N)=C/C=C1\C=Cc2ccccc2N1CC | 7.18% |
| Cc1ccc(CNC(=O)C2CC3Cn4c(nc5cc(Cl)c(Cl)cc54)C3N2C)o1 (stereo not drawn) | -58.5% |
| CCCNC(=O)C1(CC2CC(c3ccccc3)=NO2)CCN(C(=O)c2cc(OCC)c(OCC)c(OCC)c2)CC1 (stereo not drawn) | -34.6% |
| CCOC(=O)c1c(/N=C/C2C(=O)CC(C)(C)CC2=O)sc2c1CCCC2 | 13.1% |
| O=C(O)c1cccc(S(=O)(=O)Nc2ccc3oc(=O)sc3c2)c1 | 10.7% |
| CCc1ccc(C(=O)/C=C/c2ccc([N+](=O)[O-])o2)cc1 | -5.07% |
| Cc1c(C)c2ccc(OCC(=O)NCCN3CCOCC3)cc2oc1=O | 16.2% |
| CN(C(=O)c1c[nH]c(=O)cc1C(F)(F)F)c1ccc(Cl)cc1 | 15% |
| CN(C)c1oc(-c2ccco2)nc1S(=O)(=O)c1ccc(Br)cc1 | -12.1% |
| C#CCOCCOCCOCCNc1nc(N2CCN(C(=O)Cn3cc(CCC[NH+]=C(N)N)nn3)CC2)nc(N2CCN(C(=O)[C@H]([C@@H](C)CC)n3cc(CCCC[NH3+])nn3)CC2)n1.[Cl-] | 2.19% |
| Oc1ccc(/C=N/NC2=NCCCCC2)cc1 | -16.2% |
| COc1ccccc1CNC(=O)CN1C(=O)NC2(CCCC2)C1=O | 7.39% |

| SMILES | hERG current change (%, negative = inhibition) at 10uM |
| --- | --- |
| ClC1(Cl)CC1Cn1cnc2ccccc21 (stereo not drawn) | 27.8% |
| O=C(/C=C/c1ccc2ccccc2n1)c1cc(Cl)ccc1O | 18% |
| Cl.O=C(O)c1ccc(CNCc2ccc(F)cc2)cc1 | 16.4% |
| CNC(=O)Oc1ccc2ncccc2c1 | -7.61% |
| O=C(c1ccccc1C(=O)N1CCN(c2ccccc2)CC1)N1CCN(c2ccccc2)CC1 | -29.7% |
| COc1cc(NC(=S)NC(=O)c2cccs2)ccc1NC(=O)C(C)C | -6.81% |
| CCOc1ccc(CNCCNC(=O)c2nonc2N)cc1.Cl | -37.1% |
| CCCCC(=O)Nc1ccc2c(c1)nc(CCN1CCN(C)CC1)n2C | 20% |
| O=C(COC(=O)Cc1c(Cl)cccc1Cl)NCCC1=CCCCC1 | -12.2% |
| Cn1c(N2CCCC2)nc2c1c(=O)n(Cc1ccc(Cl)cc1)c(=O)n2C | -68.6% |
| Nc1nc(C23CC4CC(CC(Cl)(C4)C2)C3)cs1 | 5.08% |
| Nc1nc(NC(=O)Cc2ccccc2)nn1-c1ccccc1 | 0.691% |
| CN(C)C(=S)c1ccc2ccccc2n1 | 17.1% |
| CCC(CO)Nc1ncnc2c1cnn2-c1ccc(OC)cc1 (stereo not drawn) | 4.38% |
| Cc1ccc(S(=O)(=O)Nc2n[nH]nc2C(=O)NC2CCCCC2)cc1 | 15.2% |
| O=C(O)CC/C(=N/NC(=O)c1ccc(-c2ccccc2)cc1)c1ccccc1 | 2.91% |
| O=C(/C=C/c1ccc(Cl)cc1Cl)c1ccc[nH]1 | 6.08% |
| O=S(=O)(NCc1ccccc1)c1cccc(S(=O)(=O)N2CCOCC2)c1 | -35.8% |
| O=C(COC(=O)c1ccc[nH]c1=O)NC1CCCCCC1 | 46.2% |
| Cc1cccc(N2CCN(C(=O)CSc3nnnn3C3CC3)CC2)c1C | -25.2% |
| Cc1cccc(-c2nsc(SCC(=O)c3ccc(Cl)cc3)n2)c1 | 23.3% |
